Measurements: the supplement of paper PMC7826260
The list shows a part of the results. Viral Rep nickase domains cut single-stranded DNA in vitro at 3 µM enzyme and 37 °C for 1 h; the strands have 90 letters, of which the middle is given. A value is the log2 ratio of uncut reads to the pool without enzyme; more negative means more cut, near 0 not cut, and no call is made. Counts are relative to all reads, so uncut sequences can rise above 0 when many others are cut.

Key:
Assay in all cases: uncleaved DNA left, log2 of reads against the no-enzyme library (log2 ratio); higher = less cleavage (more negative = more Rep cleavage of the k-mer); sequences stand for … in CTCGTCCG…ACCGGAGA
[1] = system: T1, Rep nickase domain of Muscovy duck circovirus
T1 sequence (residues 1-111, tag not shown): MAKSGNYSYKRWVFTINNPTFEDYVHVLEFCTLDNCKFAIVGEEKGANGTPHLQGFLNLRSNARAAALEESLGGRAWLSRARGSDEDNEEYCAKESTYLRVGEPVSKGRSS
Protocol: (§1)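 A pool of 90-nt single-stranded DNAs with seven random bases just before the constant AC of the nick site (name = the seven bases) was cut by 3 µM recombinant His6-SUMO-tagged Rep nickase domain (300 nM DNA, 50 mM HEPES pH 8.0, 50 mM NaCl, 1 mM MnCl2, 1 h, 37 °C, three replicates). Uncut DNA was amplified and sequenced.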

[2] = system: T2, Rep nickase domain of banana bunchy top virus
T2 sequence (residues 1-94, tag not shown): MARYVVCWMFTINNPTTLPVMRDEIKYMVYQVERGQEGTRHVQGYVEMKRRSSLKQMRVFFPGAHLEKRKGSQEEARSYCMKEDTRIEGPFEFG
Protocol: as §1

[3] = system: T3, Rep nickase domain of cabbage leaf curl virus
T3 sequence (residues 1-116, tag not shown): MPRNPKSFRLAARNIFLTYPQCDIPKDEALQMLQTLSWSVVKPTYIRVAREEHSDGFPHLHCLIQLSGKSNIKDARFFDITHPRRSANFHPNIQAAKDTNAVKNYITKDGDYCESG
Protocol: as §1

[4] = system: T4, Rep nickase domain of chickpea chlorotic dwarf virus
T4 sequence (residues 1-124, tag not shown): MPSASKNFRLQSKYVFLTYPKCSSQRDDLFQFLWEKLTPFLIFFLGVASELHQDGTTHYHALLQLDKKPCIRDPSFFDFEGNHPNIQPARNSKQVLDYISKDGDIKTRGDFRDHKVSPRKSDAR
Protocol: as §1

[5] = system: T5, Rep nickase domain of faba bean necrotic yellows virus
T5 sequence (residues 1-98, tag not shown): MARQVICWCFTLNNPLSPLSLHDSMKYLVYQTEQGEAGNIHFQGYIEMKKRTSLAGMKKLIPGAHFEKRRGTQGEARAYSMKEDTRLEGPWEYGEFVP
Protocol: as §1

[6] = system: T6, Rep nickase domain of maize striate mosaic virus
T6 sequence (residues 1-117, tag not shown): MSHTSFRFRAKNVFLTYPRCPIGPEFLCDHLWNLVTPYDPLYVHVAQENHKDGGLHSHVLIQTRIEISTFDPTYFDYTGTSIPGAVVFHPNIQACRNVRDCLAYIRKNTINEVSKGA
Protocol: as §1

[7] = system: T7, Rep nickase domain of porcine circovirus 2
T7 sequence (residues 2-116, tag not shown): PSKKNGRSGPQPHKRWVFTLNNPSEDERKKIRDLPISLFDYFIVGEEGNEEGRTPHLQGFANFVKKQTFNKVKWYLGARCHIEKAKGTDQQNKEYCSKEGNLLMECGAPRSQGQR
Protocol: as §1

[8] = system: T8, Rep nickase domain of tomato yellow leaf curl virus
T8 sequence (residues 1-136, tag not shown): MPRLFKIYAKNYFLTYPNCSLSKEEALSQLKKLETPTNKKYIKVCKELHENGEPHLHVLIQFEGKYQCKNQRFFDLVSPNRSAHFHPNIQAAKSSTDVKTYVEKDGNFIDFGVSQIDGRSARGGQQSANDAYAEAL
Protocol: as §1

[9] = system: T9, Rep nickase domain of wheat dwarf virus
T9 sequence (residues 1-137, tag not shown): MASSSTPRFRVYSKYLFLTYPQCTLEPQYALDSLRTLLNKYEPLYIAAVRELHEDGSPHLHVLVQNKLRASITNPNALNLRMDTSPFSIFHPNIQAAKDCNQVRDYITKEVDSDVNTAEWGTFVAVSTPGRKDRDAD
Protocol: as §1

| Sequence | uncleaved DNA left (log2) [1] | uncleaved DNA left (log2) [2] | uncleaved DNA left (log2) [3] | uncleaved DNA left (log2) [4] | uncleaved DNA left (log2) [5] | uncleaved DNA left (log2) [6] | uncleaved DNA left (log2) [7] | uncleaved DNA left (log2) [8] | uncleaved DNA left (log2) [9] |
| --- | --- | --- | --- | --- | --- | --- | --- | --- | --- |
| AGAGCGT | 0.103 | -0.0019 | -0.303 | -0.308 | 0.0636 | -0.656 | 0.0607 | 0.168 | 0.0444 |
| ACCCCCT | -0.0262 | -0.0709 | -0.22 | -2.01 | -0.108 | -0.335 | -0.229 | -0.255 | -0.017 |
| AGCACTA | -0.0257 | 0.0126 | -0.00457 | 0.492 | -0.0169 | 1.41 | -0.0206 | -0.00537 | 0.136 |
| ACGAAAT | 0.0582 | 0.151 | 0.0724 | -0.336 | 0.058 | -0.333 | 0.115 | 0.0651 | 0.17 |
| AAAAATG | 0.103 | 0.0971 | -0.389 | -0.728 | 0.0704 | -0.888 | 0.114 | 0.105 | 0.0767 |
| TGAATCT | 0.00913 | 0.00363 | 0.201 | -1.86 | -0.0496 | -0.293 | -0.182 | 0.0627 | 0.0524 |
| TCCCCGC | 0.0218 | -0.0553 | -0.274 | -0.717 | -0.14 | -0.575 | -0.0505 | -0.0228 | -0.0573 |
| CTAAATC | 0.242 | 0.264 | 0.268 | -0.166 | 0.243 | -0.577 | 0.212 | 0.217 | 0.28 |
| ACTAACG | -0.00466 | -0.00216 | -0.748 | 0.117 | -0.0363 | -0.779 | 0.147 | 0.0911 | -0.0764 |
| AGGCCTC | -0.0191 | 0.0565 | 0.54 | 1.05 | -0.111 | 1.3 | -0.0842 | 0.0614 | 0.116 |
| GATTTAC | -0.00999 | -0.0778 | 0.0573 | -0.0641 | -0.0609 | 0.975 | -0.124 | 0.0486 | -0.0457 |
| AGGCTTC | -0.104 | -0.0352 | 0.31 | 0.364 | -0.0937 | 0.38 | -0.0246 | -0.0244 | -0.138 |
| ATGATGA | 0.0946 | -0.0466 | 0.109 | 0.217 | 0.133 | -0.44 | 0.129 | 0.034 | -0.0512 |
| GACTGCG | 0.00936 | -0.103 | -0.288 | 1.04 | -0.0191 | 0.631 | 0.107 | -0.155 | -0.115 |
| GCTCATT | 0.0644 | 0.08 | 0.288 | 0.134 | 0.077 | 0.704 | -0.352 | 0.201 | 0.151 |
| CACAGAG | 0.019 | -0.0359 | -0.733 | -0.486 | -0.027 | -1.14 | 0.0814 | -0.0728 | -0.081 |
| GTGGCGC | -0.00775 | -0.0386 | 0.0204 | 0.0737 | -0.0291 | 0.0539 | -0.000242 | -0.0515 | -0.144 |
| TGTTTGT | -0.412 | -0.0834 | 0.131 | -0.288 | 0.0393 | -0.56 | -0.459 | -0.0203 | 0.0676 |
| CATGTGG | 0.08 | -0.0658 | -0.242 | -0.119 | -0.105 | -0.835 | -0.0439 | -0.0864 | -0.168 |
| CACGTAG | -0.0933 | -0.18 | -0.718 | -0.701 | -0.166 | -1.52 | -0.0283 | -0.138 | -0.301 |
| CAAAGTA | -0.0257 | 0.00713 | -0.399 | -2.21 | -0.0409 | -0.819 | -0.144 | -0.151 | -0.127 |
| ACTACGT | -0.00237 | -0.0009 | 0.114 | -0.276 | -0.0637 | -0.507 | -0.734 | -0.0348 | 0.00249 |
| TATAGAC | 0.104 | 0.00489 | 0.292 | 0.521 | 0.0798 | 0.0846 | 0.0967 | 0.112 | 0.0823 |
| TCAATGT | 0.0727 | -0.0621 | 0.0509 | -0.308 | 0.0903 | -0.678 | 0.113 | -0.0181 | -0.076 |
| GTTGCAA | 0.195 | 0.166 | 0.257 | 0.881 | 0.0413 | 1.79 | 0.219 | 0.117 | 0.223 |
| ACCCATT | -0.0553 | 0.0516 | -0.249 | -1.76 | -0.128 | -0.888 | -0.875 | -0.121 | -0.0411 |
| CACTTGC | 0.0413 | 0.0673 | -0.843 | -0.36 | 0.0316 | -1.01 | 0.107 | 0.131 | -0.0419 |
| AACCTAG | 0.00714 | -0.0123 | -0.688 | -0.578 | 0.137 | -1.3 | -0.214 | 0.102 | -0.0524 |
| CTACGAG | 0.0958 | 0.0364 | -0.00516 | -0.249 | 0.0237 | -0.634 | 0.169 | 0.0387 | 0.0194 |
| GTAGTAT | -0.000217 | 0.0306 | 0.38 | 0.776 | -0.0506 | 1.87 | 0.0717 | 0.154 | 0.0909 |
